Measured values as given in PubChem BioAssay (NCATS).
Values joined by “and” are separate entries in the source; they are usually repeats but may differ in a detail not shown here. Equal values may be shown once. The inconclusive results got no clear call from the source; some entries with a clear call stand among them for comparison. Where the call is inconclusive, the potency comes from a doubtful curve fit. Active and inactive are the calls of the source. The call rests on the fitted dose curve; in most records, active means well fitted curve in the direction sought with a large enough effect; inconclusive means small, poorly fitted or top-dose-only effect, or another doubt; inactive means no such curve, though single readings can be large; an effect the other way counts as inactive or inconclusive.

Experiments:
[1] = qHTS of pediatric cancer cell lines to identify multiple opportunities for drug repurposing: Primary screen for SK-N-MC cells (AID 1347093); conditions: SK-N-MC viability, CellTiter-Glo luminescence, 48 h; activity change, negative = cytotoxic: at 46 µM (top of the series) unless noted
Method in brief: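 Metabolically active cells were quantified by ATP-dependent luminescence (CellTiter-Glo, 15 min at room temperature) following 48 h treatment. Cells had been plated at 500-1,000 per well and settled for 5 h beforehand.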

[2] = qHTS of pediatric cancer cell lines to identify multiple opportunities for drug repurposing: Primary screen for BT-37 cells (AID 1347094)
Method in brief: (§1)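 Primary screen of approved and investigational compounds on cells in growth media at 37 degrees C, 5% CO2. MIPE set at 11-point and NPC set at 8-point dilutions; viability scored by ATP-based luminescence at 48 hours.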

[3] = qHTS of pediatric cancer cell lines to identify multiple opportunities for drug repurposing: Primary screen for NB-EBc1 cells (AID 1347095)
Method in brief: as §1

[4] = qHTS of pediatric cancer cell lines to identify multiple opportunities for drug repurposing: Primary screen for U-2 OS cells (AID 1347096); further: nearly all actives have a fitted effect of over 50% in size
Method in brief: (§2)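 Cells (500-1,000/well) in growth media were settled 5 h at 37 degrees C, then given compounds for 48 h. Viability was read as CellTiter-Glo luminescence. Primary runs used MIPE at 11 points (0.78 nM-46 µM) and NPC at 8 points (0.59 nM-46 µM); follow-ups used 11 points.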

[5] = qHTS of pediatric cancer cell lines to identify multiple opportunities for drug repurposing: Primary screen for Saos-2 cells (AID 1347097); conditions: Saos-2 viability, CellTiter-Glo ATP luminescence, 48 h; activity change, negative = cytotoxic: at 46 µM (top of the series) unless noted; further: nearly all actives have a fitted effect of over 40% in size
Method in brief: as §1

[6] = qHTS of pediatric cancer cell lines to identify multiple opportunities for drug repurposing: Primary screen for NB1643 cells (AID 1347099); further: nearly all actives have a fitted effect of over 50% in size
Method in brief: as §1

[7] = qHTS of pediatric cancer cell lines to identify multiple opportunities for drug repurposing: Primary screen for BT-12 cells (AID 1347101); further: nearly all actives have a fitted effect of over 25% in size
Method in brief: (§3)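 Cells (500-1,000/well) rested 5 h, then received compounds for 48 h; metabolically active cells were measured by CellTiter-Glo luminescence. Final concentrations spanned up to 46 µM (MIPE, 11-point) or 0.59 nM-46 µM (NPC, 8-point) in primary screens, 11-point in follow-ups.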

[8] = qHTS of pediatric cancer cell lines to identify multiple opportunities for drug repurposing: Primary screen for SK-N-SH cells (AID 1347098); conditions: SK-N-SH viability, CellTiter-Glo luminescence, 48 h; activity change, negative = cytotoxic: at 57 µM (top of the series) unless noted; further: nearly all actives have a fitted effect of over 65% in size
Method in brief: as §3

[9] = qHTS of pediatric cancer cell lines to identify multiple opportunities for drug repurposing: Primary screen for Rh18 cells (AID 1347102); further: nearly all actives have a fitted effect of over 65% in size
Method in brief: as §2

[10] = qHTS of pediatric cancer cell lines to identify multiple opportunities for drug repurposing: Primary screen for LAN-5 cells (AID 1347100); conditions: LAN-5 neuroblastoma viability, CellTiter-Glo luminescence, 48 h; activity change, negative = cytotoxic: at 46 µM (top of the series) unless noted
Method in brief: as §2
Potency means the concentration at half of the fitted maximal effect; tags describe the fitted curve by direction and shape.

Structure (SMILES) | Potency [1] | Potency [2] | Potency [3] | Potency [4] | Potency [5] | Potency [6] | Potency [7] | Potency [8] | Potency [9] | Potency [10]
CCOC(=O)c1c(C(C#N)=CN)c2ccc(Cl)c(Cl)c2n1C | active: 18.7 µM | inactive | inconclusive: 37.2 µM [cytotoxic, single point] | inactive | inconclusive: 18.7 µM [cytotoxic, partial curve, poor fit] | inconclusive: 18.7 µM [cytotoxic, partial curve] | – | – | – | –
Nc1ccccc1C(=O)OCC(O)CO (configuration not stated) | inactive | – | – | – | – | – | – | – | – | –
C#C[C@]1(O)C=C[C@@H]2[C@@H]3CCC4=CC(=O)CC[C@@H]4[C@H]3CC[C@@]21CC | inconclusive: 26.4 µM [cytotoxic, partial curve, poor fit] | inactive | inconclusive: 29.6 µM [cytotoxic, single point] | inactive | – | active: 8.33 µM | inconclusive: 43.2 µM [cytotoxic, partial curve, poor fit] | – | – | –
CNC(=O)N1N=C(c2ccc(N)cc2)c2cc3c(cc2CC1C)OCO3 (configuration not stated) | active: 9.35 µM | inconclusive: 5.44 µM [cytotoxic, full curve] | inconclusive: 9.35 µM [cytotoxic, partial curve] | – | inconclusive: 1.18 µM [cytotoxic, full curve] | inconclusive: 16.6 µM [cytotoxic, partial curve] | inconclusive: 6.85 µM [cytotoxic, partial curve, poor fit] | inconclusive: 13.6 µM [cytotoxic, partial curve] | inconclusive: 5.9 µM [cytotoxic, full curve] | –
ClC1=C(Cl)[C@]2(Cl)[C@@H]3[C@@H]4C[C@@H]([C@H]5O[C@@H]45)[C@@H]3[C@@]1(Cl)C2(Cl)Cl | active: 19.3 µM | inconclusive: 63.2 µM [cytotoxic, single point] | inconclusive: 34.4 µM [cytotoxic, single point] | – | active: 38.6 µM | inconclusive: 27.3 µM [cytotoxic, partial curve] | inconclusive: 28.2 µM [cytotoxic, partial curve, poor fit] | inconclusive: 39.6 µM [cytotoxic, single point] | inconclusive: 21.7 µM [cytotoxic, partial curve] | inconclusive: 38.6 µM [cytotoxic, single point]
C[N+](C)(C)CCOC(=O)C(O)(c1ccccc1)c1ccccc1 | inactive | – | – | – | – | – | – | – | – | –
COc1nn(CSP(=S)(OC)OC)c(=O)s1 | inconclusive: 48.6 µM [cytotoxic, partial curve] | inconclusive: 89.3 µM [cytotoxic, partial curve, poor fit] | inconclusive: 43.3 µM [cytotoxic, single point] | – | inconclusive: 68.6 µM [cytotoxic, partial curve, poor fit] | inconclusive: 68.6 µM [cytotoxic, single point] | inconclusive: 22.4 µM [cytotoxic, partial curve] | inconclusive: 7.89 µM [cytotoxic, single point] | inconclusive: 38.6 µM [cytotoxic, single point] | inconclusive: 38.6 µM [cytotoxic, single point]
O=C(NCC1CCOCC1)c1cnc(Nc2ccc(Cl)cc2Cl)nc1C(F)(F)F | active: 3.32 µM | inconclusive: 27.3 µM [cytotoxic, single point] | inconclusive: 26.4 µM [cytotoxic, single point] | – | inconclusive: 16.6 µM [cytotoxic, partial curve] | – | – | – | – | inconclusive: 20.9 µM [cytotoxic, single point]
CC(C)N(CCC(C(N)=O)(c1ccccc1)c1ccccn1)C(C)C (configuration not stated) | inactive | inactive | – | – | – | – | – | – | – | –
CCN(CC)C(=O)[C@@H]1C=C2c3cccc4[nH]cc(c34)C[C@H]2N(C)C1 | inconclusive: 179 µM [cytotoxic, single point] | inconclusive: 74 µM [cytotoxic, partial curve, poor fit] | inconclusive: 179 µM [cytotoxic, single point] | – | inconclusive: 89.8 µM [cytotoxic, single point] | – | – | inconclusive: 73.2 µM [cytotoxic, partial curve] | – | –
O=S(=O)(c1ccc(Cl)cc1)c1ccc(Cl)cc1 | inconclusive: 69.3 µM [cytotoxic, single point] | inconclusive: 36.1 µM [cytotoxic, partial curve, poor fit] | inconclusive: 21.9 µM [cytotoxic, partial curve, poor fit] | – | inconclusive: 30.9 µM [cytotoxic, partial curve] | inconclusive: 34.7 µM [cytotoxic, single point] | – | inconclusive: 6.37 µM [cytotoxic, full curve] | – | inactive
COCCOCCO | inactive | inactive | – | – | – | – | – | – | – | –
Clc1ccc(CO/N=C(\Cn2ccnc2)c2ccc(Cl)cc2Cl)c(Cl)c1 | inconclusive: 29.9 µM [cytotoxic, single point] | inconclusive: 34.7 µM [cytotoxic, single point] | inconclusive: 26.6 µM [cytotoxic, single point] | inconclusive: 21.1 µM [cytotoxic, single point] | inconclusive: 13.3 µM [cytotoxic, single point] | inactive | inconclusive: 27.6 µM [cytotoxic, partial curve] | – | inconclusive: 29.9 µM [cytotoxic, single point] | active: 23.7 µM
Cc1cc(SCc2sc(-c3ccc(C(F)(F)F)c(F)c3)nc2C)ccc1OCC(=O)O | inconclusive: 37.2 µM [cytotoxic, single point] | inconclusive: 21.7 µM [cytotoxic, partial curve, poor fit] | inconclusive: 33.2 µM [cytotoxic, single point] | – | inconclusive: 29.6 µM [cytotoxic, single point] | – | – | inconclusive: 24.1 µM [cytotoxic, partial curve] | – | –
C=C[C@@H]1CN2CCC1C[C@@H]2[C@@H](O)c1ccnc2ccccc12 (some centres not stated) | active: 9.35 µM | inconclusive: 24.3 µM [cytotoxic, partial curve] | inconclusive: 26.4 µM [cytotoxic, single point] | – | active: 26.4 µM | – | inconclusive: 27.3 µM [cytotoxic, single point] | – | inconclusive: 9.35 µM [cytotoxic, partial curve, poor fit] | inconclusive: 37.2 µM [cytotoxic, single point]
Clc1ccc(COC(Cn2ccnc2)c2ccc(Cl)cc2Cl)cc1 (configuration not stated) | inconclusive: 33.5 µM [cytotoxic, partial curve, poor fit] and inconclusive: 29.6 µM [cytotoxic, single point] | inconclusive: 27.6 µM [cytotoxic, single point] and inconclusive: 43.2 µM [cytotoxic, single point] | inconclusive: 29.9 µM [cytotoxic, single point] and inconclusive: 37.2 µM [cytotoxic, single point] | inconclusive: 26.6 µM [cytotoxic, single point] | inconclusive: 16.8 µM [cytotoxic, single point] and inconclusive: 29.6 µM [cytotoxic, partial curve] | active: 26.6 µM and inconclusive: 7.43 µM [cytotoxic, full curve] | inconclusive: 34.3 µM [cytotoxic, single point] | – | inconclusive: 23.7 µM [cytotoxic, single point] | inconclusive: 23.7 µM [cytotoxic, single point] and inconclusive: 26.4 µM [cytotoxic, single point]
CC(=O)OC1(c2ccccc2)CCN(CCc2ccccc2)CC1 | inconclusive: 78.5 µM [cytotoxic, single point] | inconclusive: 36.4 µM [cytotoxic, partial curve] | inconclusive: 69.9 µM [cytotoxic, partial curve] | – | inconclusive: 88 µM [cytotoxic, partial curve, poor fit] | – | – | inconclusive: 36.1 µM [cytotoxic, single point] | inconclusive: 27.8 µM [cytotoxic, partial curve, poor fit] | inconclusive: 55.6 µM [cytotoxic, single point]
O=C(CCl)c1ccc(Cl)cc1Cl | inconclusive: 33.5 µM [cytotoxic, single point] | inconclusive: 38.9 µM [cytotoxic, partial curve, poor fit] | inconclusive: 26.6 µM [cytotoxic, single point] | – | inconclusive: 33.5 µM [cytotoxic, single point] | inconclusive: 33.5 µM [cytotoxic, single point] | inconclusive: 30.9 µM [cytotoxic, single point] | inconclusive: 38.6 µM [cytotoxic, single point] | – | –
Cc1ccccc1-n1c(Cn2ncc3c(N)ncnc32)nc2cccc(C)c2c1=O | active: 0.0132 µM | active: 0.0086 µM | active: 0.0935 µM | – | active: 0.0083 µM | inconclusive: 0.0148 µM [cytotoxic, full curve] | – | inconclusive: 0.121 µM [cytotoxic, full curve] | – | inconclusive: 0.0105 µM [cytotoxic, full curve]
